Reference: PubChem BioAssay (NCATS)
Values joined by “and” are separate entries in the source; they are usually repeats but may differ in a detail not shown here. Equal values may be shown once. Some of the results follow. These are further read-outs of the screen, such as a control signal, another cell line or another target. No call is given for them. For some assays here: The list favours compounds with an active or inconclusive main result. The note in brackets gives the kind of curve behind each potency; many fits are weak.

Tests used:
[1] = qHTS drug screen for cell cycle checkpoint inhibitors in PARPi-resistant BRCA-mutant ovarian cancer cell lines. (AID 1963452); conditions: PEO1/OlaR viability, CellTiter-Glo luminescence, 96 h
Summary of the method: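 PEO1, PEO4 and PEO1/OlaR ovarian cancer cells, 600 per well, exposed 96 h at 37C to a dilution series. Viability read by CellTiter-Glo luminescence, normalized to DMSO and empty wells; activity summarized as Z-AUC.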

[2] = qHTS for identification of novel therapeutic agents for treatment of microphthalmiaassociated transcription factor (MiT) renal cell carcinoma (RCC) (AID 1963991); conditions: CellTiter-Glo, 48 h; for z-score: stronger effect = lower value
Summary of the method: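 Curves over 11 concentrations were fitted to CellTiter-Glo luminescence, scaled between empty wells (0%) and DMSO (100%) viability. Cells were UOK109, UOK124 and UOK145 TFE3-fusion RCC lines at 500/well, exposed 48 hours at 37 C.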

[3] = measured here: PEO1 parental viability
[4] = TFE3-RCC UOK109 viability, measured here: UOK109 Z-AUC
[5] = TFE3-RCC viability, measured here: UOK124 Z-AUC
[6] = TFE3-RCC viability, measured here: UOK124 cell viability
[7] = TFE3-RCC viability, measured here: UOK145 Z-AUC
[8] = TFE3-RCC viability, measured here: UOK145 cell viability
Tags describe the fitted curve by direction and shape.

Row | Compound | AC50 [1, 3] | AC50 ([1]; measured here: PEO4 viability) | z-score [2, 4] | z-score [2, 5] | AC50 [2, 6] | z-score [2, 7] | AC50 [2, 8]
1 | N#CC1(c2cccc(C(=O)Nc3cc(Oc4ccc5nc(NC(=O)C6CC6)sc5n4)ccc3F)c2Cl)CC1 | 0.692 µM [falling, full curve] | 3.47 µM [falling, single point] | -0.611 | 0.821 | 4.69 µM [falling, full curve] | -0.0429 | 5.9 µM [falling, partial curve]
2 | COc1cc2c(Oc3ccc4[nH]c(C)cc4c3F)ncnc2cc1OCCCN1CCCC1 | 19.5 µM [falling, partial curve] | 17.4 µM [falling, partial curve] | -0.773 | 0.0578 | 20.9 µM [falling, partial curve] | 0.473 | 29.6 µM [falling, single point]
3 | Cc1[nH]nc2ccc(-c3cncc(OC[C@@H](N)Cc4ccccc4)c3)cc12 | 0.776 µM [falling, full curve] | 0.871 µM [falling, full curve] | -0.149 | 0.45 | 3.32 µM [falling, full curve] | -0.342 | 2.35 µM [falling, full curve]
4 | Cc1cnc(NC(=O)Nc2cc(Br)c(C)cc2OC[C@@H]2CNCCO2)cn1 | 1.95 µM [falling, full curve] | 1.95 µM [falling, full curve] | -0.275 | -0.694 | 7.43 µM [falling, partial curve] | -0.415 | 2.64 µM [falling, full curve]
5 | CC(C)[C@H](CO)Nc1nc(Nc2cccc(Cl)c2)c2ncn(C(C)C)c2n1 | 9.77 µM [falling, partial curve] | 11 µM [falling, partial curve] | -0.619 | 0.0947 | 14.8 µM [falling, partial curve] | -1.14 | 14.8 µM [falling, partial curve]
6 | Nc1nc(Nc2ccc(S(N)(=O)=O)cc2)nn1C(=O)c1c(F)cccc1F | 4.9 µM [falling, full curve] | 3.89 µM [falling, full curve] | -0.545 | 0.117 | 7.43 µM [falling, full curve] | 0.344 | 11.8 µM [falling, full curve]
7 | O=C(CCCCCCC(=O)Nc1cccnc1)NO | 13.8 µM [falling, partial curve] | 19.5 µM [falling, partial curve] | -0.404 | 0.0317 | 20.9 µM [falling, partial curve] | 0.25 | 26.4 µM [falling, single point]
8 | CCN(CC)CCNC(=O)c1ccc2nc(-c3ccccc3)c(-c3ccc(CN4CCC(n5c(=O)[nH]c6ccccc65)CC4)cc3)nc2c1 | 19.5 µM [falling, single point] | 2.19 µM [falling, full curve] | -0.0586 | -1.8 | 1.66 µM [falling, full curve] | -1.4 | 3.32 µM [falling, full curve]
9 | c1cc(-c2cnn3cc(-c4ccc(OCCN5CCCCC5)cc4)cnc23)ccn1 | 15.5 µM [falling, partial curve] | 9.77 µM [falling, partial curve] | 0.0878 | -1.75 | 23.5 µM [falling, partial curve] | -0.196 | 16.6 µM [falling, partial curve]
10 | C#Cc1cccc(Nc2ncnc3cc(OCCOC)c(OCCO)cc23)c1 | 12.3 µM [falling, partial curve] | 19.5 µM [falling, partial curve, poor fit] | -2.87 | -0.209 | 16.6 µM [falling, partial curve, poor fit] | -0.665 | 14.8 µM [falling, partial curve]
11 | CNC1CCC(N(Cc2cccc(-c3ccncc3)c2)C(=O)c2sc3c(F)ccc(F)c3c2Cl)CC1 (stereo unspecified) | 15.5 µM [falling, partial curve] | 12.3 µM [falling, partial curve] | -1.53 | -0.268 | 11.8 µM [falling, partial curve] | -0.544 | 18.7 µM [falling, partial curve]
12 | COc1cccc2c1CCCC2CCCN1CCN(C2CCCCC2)CC1 (stereo unspecified) | 15.5 µM [falling, partial curve] | 19.5 µM [falling, partial curve, poor fit] | 0.465 | -0.148 | 29.6 µM [falling, single point] | 0.512 | 26.4 µM [falling, single point]
13 | Nc1ccccc1NC(=O)c1ccc(CNC(=O)OCc2cccnc2)cc1 | 7.76 µM [falling, partial curve] | 7.76 µM [falling, partial curve] | 0.0492 | -0.0642 | 16.6 µM [falling, partial curve] | -0.0344 | 10.5 µM [falling, partial curve]
14 | COc1cccc2c1C(=O)c1c(O)c3c(c(O)c1C2=O)C[C@@](O)(C(=O)CO)C[C@@H]3O[C@H]1C[C@H](N)[C@H](OC2CCCCO2)[C@H](C)O1 (stereo partly specified) | 1.95 µM [falling, partial curve, poor fit] and 155 nM [falling, full curve] | 13.8 µM [falling, partial curve] and 436 nM [falling, full curve] | -0.146 | -0.744 | 1.18 µM [falling, full curve] | -0.401 | 2.64 µM [falling, full curve]
15 | COc1cc(O)c2c(c1)C1OC1C[C@H](O)[C@H](O)C(=O)C=CC[C@H](C)OC2=O (stereo partly specified) | 11 µM [falling, partial curve] | 3.09 µM [falling, full curve] | -0.298 | -0.0178 | 7.43 µM [falling, single point] | -0.36 | 16.6 µM [falling, partial curve]
16 | O=C1NCCc2[nH]c(-c3ccncc3)cc21 | 5.49 µM [falling, single point] | 5.49 µM [falling, single point] | -0.0168 | 0.216 | 4.69 µM [falling, full curve] | 0.275 | 7.43 µM [falling, full curve]
17 | O=C1[C@H](Cc2ccc(O)cc2)N2C(=O)CCN(C(=O)NCc3ccccc3)[C@H]2CN1Cc1cccc2ccccc12 | 3.89 µM [falling, full curve] | 3.89 µM [falling, partial curve] | -0.137 | 0.107 | 10.5 µM [falling, partial curve] | -0.478 | 13.2 µM [falling, partial curve]
18 | NC(CO)(CO)CCc1ccc(Sc2cccc(OCc3ccccc3)c2)cc1Cl | 19.5 µM [falling, partial curve] | 12.3 µM [falling, partial curve] | 0.378 | -0.782 | 14.8 µM [falling, partial curve] | 0.185 | 18.7 µM [falling, partial curve]
19 | COc1cc2nccc(Oc3ccc(NC(=O)Nc4cc(C)on4)c(Cl)c3)c2cc1OC | 2.19 µM [falling, full curve] | 3.09 µM [falling, full curve] | 0.383 | 0.827 | 20.9 µM [falling, partial curve] | 0.123 | 16.6 µM [falling, partial curve]
20 | CC[C@@]1(O)C[C@H](O[C@H]2C[C@H](N(C)C)[C@H](O[C@H]3C[C@H](O)[C@H](O[C@H]4CCC(=O)[C@H](C)O4)[C@H](C)O3)[C@H](C)O2)c2c(cc3c(c2O)C(=O)c2c(O)cccc2C3=O)[C@@H]1C(=O)OC | 13.8 µM [falling, partial curve, poor fit] | 15.5 µM [falling, partial curve, poor fit] | -1.21 | -0.742 | 0.59 µM [falling, full curve] | -1.21 | 0.187 µM [falling, full curve]
21 | S=c1nc[nH]c2nc[nH]c12 | 2.19 µM [falling, full curve] | 1.95 µM [falling, full curve] | -0.403 | -0.967 | 0.833 µM [falling, full curve] | -0.545 | 4.18 µM [falling, full curve]
22 | CN(c1ncccc1CNc1nc(Nc2ccc3c(c2)CC(=O)N3)ncc1C(F)(F)F)S(C)(=O)=O | 4.9 µM [falling, partial curve] | 5.49 µM [falling, partial curve] | -0.177 | -0.0872 | 6.62 µM [falling, full curve] | -0.199 | 16.6 µM [falling, partial curve]
23 | Cc1ccc(F)c(NC(=O)Nc2ccc(-c3cccc4[nH]nc(N)c34)cc2)c1 | 13.8 µM [falling, partial curve] | 15.5 µM [falling, partial curve] | 0.604 | 0.52 | 33.2 µM [falling, single point] | 0.645 | 37.2 µM [falling, single point]
